In PubChem BioAssay AID588342 (National Center for Advancing Translational Sciences (NCATS), 2011):
The campaign covered roughly 360,000 compounds. About 25,000 (6.9%) were called active. The inconclusive results got no clear call from the source; some entries with a clear call stand among them for comparison. The call rests on the fitted dose curve; in most records, active means well fitted inhibition curve with a large enough effect; inconclusive means small, poorly fitted or top-dose-only effect; inactive means flat fitted curve, though single readings scatter. Potencies beside an inconclusive call are fits to weak or partial responses and may not hold up.

Each molecule was assayed against Luciferin 4-monooxygenase (Photinus pyralis) (UniProt P08659) (assay: qHTS profiling assay for firefly luciferase inhibitor/activator using purifed enzyme and Km concentrations of substrates (counterscreen for miR-21 project)). Details: purified FLuc, luminescence inhibition; series mostly up to 57.5 µM; activity change, negative = inhibition: at the top concentration.
From the text: MLPCN Grant: 1 R21 NS059478-01 (miR-21 grant) Assay Provider: NCGC NCGC Assay Overview: Firefly (Photinus pyralis) luciferase is one of the most commonly used transcriptional reporters for a number of reasons. It is considered one of the more dynamically responsive reporters -that is, responsive to changes in reporter transcription - as it requires no post-translational modifications and is enzymatically active directly after protein synthesis (Wood, 1998). Additionally, the half-life of the luciferase protein is short relative to other reporter-gene products (Wood, 1995). Whereas reporters with long half-lives potentially allow for increased signal due to accumulation of reporter-gene product, once accumulated in the cell, dynamic changes in reporter-gene expression may be difficult to detect(Fan and Wood, 2007; Almond et al., 2004). It has been shown that wild-type P. pyralis luciferase has a half-life of approximately […] hours in mammalian cells (Thompson et al., 1991). Firefly luciferase reporter-gene assays are also generally considered one of the most sensitive assay types (Wood, 1995; Wood, 1998). Although light produced in a bioluminescence reaction is of lower intensity than that produced during fluorescence emission, this is offset by little to no background light inherent to luminescent assays. Thus the luciferase reporter can be expressed at much lower levels than fluorescent proteins while still providing robust signal. # However, it was initially observed, in 1991, by Thompson et al., that compounds that resemble the substrates of firefly luciferase (FLuc) can act as competitive inhibitors of the enzyme, and that these compounds, upon interaction with luciferase in the cell, can actually stabilize the protein and increase its half-life. Accumulated intracellular FLuc protein can be measured as an increase in luminescence signal, upon addition of detection reagents (which contain high concentrations of FLuc substrates) commonly used in high-throughput screening. In cell-based reporter gene assays that use FLuc as the reporter gene to quantitate the potential influence of a given compound against the target biology, this apparent increase in luminescence can mistakenly be interpreted as identification of a compound that is active against the target of interest. This is the case for the miR-21 FLuc reporter gene assay used to identify inhibitors of the miR-21 pathway (PubChem AID 2289) - compounds of interest will inhibit miR-21 biogenesis/expression or activity, and are identified by causing an increase in luminescence, due to increased FLuc translation. However, FLuc inhibitory compounds that stabilize the FLuc protein will give an identical read-out, making it difficult to distinguish compounds that are active against the target from those active against FLuc. Previous profiling work to determine the prevalence of compounds that affect FLuc enzymatic activity (PubChem AID 411) identified that ~3% of the MLSMR library (then at ~72K) inhibited FLuc. […] Since the MLSMR had grown to ~350K compounds, and since it was expected that a significant percentage of compounds found active in the miR-21 FLuc assay would be FLuc inhibitors, the library was screened for activity against FLuc using a biochemical assay of purified FLuc and KM concentrations of FLuc substrates (D-luciferin and ATP).
NCGC Assay Protocol Summary: Reagents: 50mM Tris acetate, pH 7.5; 10mM Mg acetate; 10uM D-luciferin (Sigma #L9504); 10uM ATP; 0.01% Tween-20; 0.05% BSA; 10nM P. pyralis luciferase (Sigma #L9506) Control compounds used were two known firefly luciferase inhibitors (compounds (2) and (5) in Auld et al., 2010), and DMSO. […]
Further: nearly all actives have a fitted effect of over 55% in size.
Tags describe the fitted curve by direction and shape.
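Wherever activity change, negative = inhibition is given: plate controls were vehicle for no effect and reference inhibitor for full effect.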

Chain of UniProt P08659 (P08659 whole entry, looked up): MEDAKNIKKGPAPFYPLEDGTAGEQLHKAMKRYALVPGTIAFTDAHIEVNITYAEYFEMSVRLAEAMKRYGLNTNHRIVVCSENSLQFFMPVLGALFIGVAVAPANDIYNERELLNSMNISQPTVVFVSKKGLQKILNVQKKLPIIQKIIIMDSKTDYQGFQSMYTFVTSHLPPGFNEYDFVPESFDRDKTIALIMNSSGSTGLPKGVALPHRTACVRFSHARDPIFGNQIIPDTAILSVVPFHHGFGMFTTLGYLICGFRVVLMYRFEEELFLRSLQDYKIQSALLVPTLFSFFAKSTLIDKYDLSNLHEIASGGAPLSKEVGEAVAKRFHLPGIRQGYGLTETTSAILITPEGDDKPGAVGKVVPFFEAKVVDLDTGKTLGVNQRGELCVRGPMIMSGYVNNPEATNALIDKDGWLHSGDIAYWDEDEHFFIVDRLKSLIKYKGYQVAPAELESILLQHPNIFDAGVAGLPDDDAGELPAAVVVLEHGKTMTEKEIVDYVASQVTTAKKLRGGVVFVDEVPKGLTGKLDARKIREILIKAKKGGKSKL

Structure (SMILES) | Potency | activity change, negative = inhibition
CCN(CC)c1nc(SCCOC(=O)Nc2ccccc2)nc(N(CC)CC)n1 | inconclusive: 37.9 µM [inhibitor, single point] | –
Cc1ccc(/C=N/NC(=O)Cn2cncn2)cc1 | inconclusive: 21.3 µM [inhibitor, partial curve, poor fit] | –
COC(=O)c1cc(NC(=O)CN(c2cccc(OC)c2)S(=O)(=O)c2ccccc2)ccc1Cl | – | inactive: 0.404%
CCOC(=O)C1CCN(C(=O)c2cc3c(ccc4ccccc43)o2)CC1 | active: 12 µM | –
CCOc1cc(C(=O)N2CC(=O)Nc3ccc(C)cc3C2c2ccccc2)cc(OCC)c1OCC (configuration not stated) | – | inactive: 0.855%
CN(C)c1cc2c(cc1NC(=O)c1ccccc1Cl)n(C)c(=O)n2C | – | inactive: 2.92%
Cc1nnc(SCc2ccccc2)c2cc3sccc3n12 | inconclusive: 23.9 µM [inhibitor, partial curve] | –
CCOC(=O)c1ccccc1NC(=O)C1CC(=O)N(C2CCCCC2)C1 (configuration not stated) | inconclusive: 37.9 µM [inhibitor, partial curve, poor fit] | –
O=C(/C=C/Nc1ccc(Br)cc1F)c1ccccc1 | active: 0.107 µM | –
Cc1nc2nc(-c3ccccc3)[nH]n2c(=O)c1Cc1ccccc1 | active: 19 µM | –
CCc1ccc(CN(Cc2ccco2)C(=O)c2ccc(OC)cc2)cc1 | – | inactive: -17.7%
CCCc1cc(=O)oc2cc(C)cc(OCC(=O)N3CCC(C(=O)O)CC3)c12 | – | inactive: 1.13%
CCN1CCN(c2ccc(N=Cc3ccccc3O)cc2)CC1 | active: 21.3 µM | –
COc1ccc(NC(=O)Cn2nnc3sc4c(c3c2=O)CCC(C)C4)c(OC)c1 (configuration not stated) | inconclusive: 30.1 µM [inhibitor, partial curve, poor fit] | –
COc1ccc2nc(N3C(=O)CC(Cc4ccc(C)cc4)C3=O)sc2c1 (configuration not stated) | inconclusive: 30.1 µM [inhibitor, single point] | –
Cc1cccc(OCC(=O)N2CCC(c3ccccc3)C2)c1 (configuration not stated) | active: 13.5 µM | –
COc1cc(C(=O)Oc2cccc(C=O)c2)cc(OC)c1OC | – | inactive: 1.62%
Cc1cccc(NC(=O)Nc2ccc3c(c2)OCO3)n1 | active: 2.69 µM | –
CCN(CC)CCN1C(=O)C(=O)/C(=C(/O)c2ccc(OC)cc2)C1c1ccco1 (configuration not stated) | inconclusive: 21.3 µM [inhibitor, partial curve, poor fit] | –
CCOc1ccc(N(CC(=O)Nc2ccc(C)c(C)c2)S(=O)(=O)c2c(C)[nH]c(=O)[nH]c2=O)cc1 | inconclusive: 42.6 µM [inhibitor, partial curve, poor fit] | –
CCOc1ccc(-c2nn(CC(=O)NC3CCCCC3)c3c2cnc2ccc(C)cc23)cc1 | – | inactive: -1.04%
COc1ccc(-c2nnn(-c3ccc(Cl)cc3Cl)c2N)cc1 | inconclusive: 37.9 µM [inhibitor, partial curve, poor fit] | –
COc1ccc(C(=O)NCCOc2cccc(OC)c2)cc1 | inconclusive: 37.9 µM [inhibitor, partial curve, poor fit] | –
N/C(=N\OC(=O)N1CCOCC1)c1ccc(Cl)cc1 | inconclusive: 21.3 µM [inhibitor, single point] | –

Structure (SMILES) | Potency | activity change, negative = inhibition
COc1ccc(N(S(=O)(=O)c2ccccc2)S(=O)(=O)c2ccccc2)c(N)c1 | – | inactive: -2.79%
COc1ccc2oc(C(=O)OCC(=O)N(C)CC(=O)Nc3ccc(C)cc3)c(C)c2c1 | inconclusive: 37.9 µM [inhibitor, partial curve, poor fit] | –
Cc1ccc(NC(=O)Nc2ccon2)cc1 | inconclusive: 26.9 µM [inhibitor, single point] | –
O=C(Nc1ccn(-c2ccccc2)n1)c1ccccc1Br | inconclusive: 26.9 µM [inhibitor, single point] | –
Cc1cccc2sc(NNC(=O)c3ccc4c(c3)OCCO4)nc12 | inconclusive: 16.9 µM [inhibitor, partial curve, poor fit] | –
Fc1ccc2nc(Nc3nc4c(F)cc(F)cc4s3)sc2c1 | active: 8.49 µM | –
COc1cccc(C(=O)COc2cccc(NC(=O)c3ccco3)c2)c1 | active: 26.9 µM | –
COC(=O)c1ccc(COc2ccccc2[N+](=O)[O-])o1 | inconclusive: 23.9 µM [inhibitor, partial curve, poor fit] | –
CC(=O)N1CCN(c2ccc(NC(=O)c3ccc(Br)o3)cc2Cl)CC1 | inconclusive: 30.1 µM [inhibitor, partial curve, poor fit] | –
COc1ccc(Nc2cc(C(=O)NCCc3ccc(C)cc3)c3ccccc3n2)c(OC)c1 | inconclusive: 15.1 µM [inhibitor, partial curve] | –
CCCCOc1ccc(C(=O)Nc2nnc3n2CCS3)cc1 | inconclusive: 30.1 µM [inhibitor, partial curve] | –
O=C(CNC(=O)c1ccccc1)N/N=C/c1cccs1 | inconclusive: 33.8 µM [inhibitor, single point] | –
Cc1ccc(-c2nn(-c3ccccc3)cc2/C=C/C(=O)Nc2cccc(S(N)(=O)=O)c2)cc1 | inconclusive: 15.1 µM [inhibitor, partial curve] | –
Cc1cccc(NS(=O)(=O)c2cc3c4c(c2)CCC(=O)N4CCC3)c1 | – | inactive: 4.16%
CCc1cccc(OCC(=O)Nc2ccc(S(=O)(=O)Nc3cc(C)nc(C)n3)cc2)c1 | inconclusive: 19 µM [inhibitor, partial curve, poor fit] | –
COc1ccc(OC)c(CCNC(=O)c2ccc3c(c2)N(Cc2ccc(C)cc2)CCS3)c1 | – | inactive: -8.3%
Cc1ccccc1CCN(C(=O)Cn1nnc2ccccc21)C(C(=O)NC(C)(C)C)c1ccsc1 (configuration not stated) | – | inactive: -1.75%
Cc1ccc(NC(=O)C(=O)NCCCN2CCOCC2)cc1C | – | inactive: 6.65%
CC(=O)Nc1ccc2nc(SCCOc3ccccc3)sc2c1 | inconclusive: 26.9 µM [inhibitor, single point] | –
Cc1cccc(NC(=O)c2c(C)nn(-c3ccccc3)c2Cl)c1 | active: 13.5 µM | –
Cc1c(/C(O)=C2/C(=O)C(=O)N(Cc3cccnc3)C2c2cccs2)cnn1-c1ccccc1 (configuration not stated) | – | inactive: -1.73% [at 2.3 µM]
O=C(O)CSc1nnc(CSc2nc3ccccc3s2)n1-c1ccccc1 | inconclusive: 26.9 µM [inhibitor, partial curve, poor fit] | –
Cc1c(CNC2CCCCCC2)c(C(=O)O)c(C)n1Cc1ccc(F)cc1 | – | inactive: -0.542%
O=C(COC(=O)Cc1c[nH]c2ccccc12)Nc1cccc2ccccc12 | inconclusive: 21.3 µM [inhibitor, partial curve, poor fit] | –

Structure (SMILES) | Potency | activity change, negative = inhibition
CN1CCc2cccc3c2[C@@H]1Cc1ccc(O)c(O)c1-3 | inconclusive: 9.53 µM [inhibitor, partial curve] | –
CCN1CCC(CNCc2cn(-c3ccc(OC)cc3)nc2-c2ccccc2Cl)C1 (configuration not stated) | – | inactive: -1.92%
O=c1cc2oc3cc(O)c(O)cc3c(-c3ccccc3O)c-2cc1O | inconclusive: 37.9 µM [inhibitor, single point] | –
CCOCCCNc1ncnc2c1[nH]c1ccccc12 | inconclusive: 16.9 µM [inhibitor, partial curve] | –
C/C(=N\Nc1c(Cl)c(Cl)nc(C(=O)O)c1Cl)c1ccc(O)cc1 | inconclusive: 23.9 µM [inhibitor, single point] | –
Cc1nn(-c2ccccc2)c(Cl)c1/C=N/NC(=O)OC(C)(C)C | active: 15.1 µM | –
O=C(Nc1nc2ccccc2s1)c1cc(-c2ccccc2)nn1-c1ccccc1 | inconclusive: 13.5 µM [inhibitor, partial curve, poor fit] | –
CN1CCN(c2ccc(NC(=O)c3ccc(Cl)cc3Cl)cc2)CC1 | inconclusive: 23.9 µM [inhibitor, single point] | –
CC(c1ccon1)N(C)C(=O)CCc1nnc(Cc2ccc(-c3ccccc3)cc2)o1 (configuration not stated) | inconclusive: 21.3 µM [inhibitor, partial curve, poor fit] | –
CN(C)c1ccc(/C=N/NC(=O)c2ccn(C)n2)cc1 | active: 3.79 µM | –
Cc1occc1C(=O)Nc1ccc2c(c1)OCCO2 | active: 8.49 µM | –
CC1CCCN(c2ccc(C(=O)NCc3ccccc3)cn2)C1 (configuration not stated) | inconclusive: 23.9 µM [inhibitor, single point] | –
Cc1ccc2nc(N(Cc3cccnc3)C(=O)c3cccs3)sc2c1 | inconclusive: 13.5 µM [inhibitor, partial curve, poor fit] | –
O=C(/C=C/c1cccc([N+](=O)[O-])c1)OCC(=O)c1ccccc1 | inconclusive: 19 µM [inhibitor, partial curve] | –
COc1ccc2[nH]c3nc(SCc4nnc(-c5ccccc5)o4)nnc3c2c1 | – | inactive: -11.2%
NC(=O)CCN(C(=O)c1cccc(S(=O)(=O)N2CCc3ccccc32)c1)c1ccccc1 | – | inactive: 3.7%
COc1ccc2[nH]cc(CCNC(=O)c3cnn(-c4ccccc4Cl)c3C3CCN(C(=O)OC(C)(C)C)CC3)c2c1 | – | inactive: -2.17%
Cc1ccc(C(=O)O/N=C(\N)c2ccccn2)cc1C | active: 0.0953 µM | –
COC(=O)c1ccc(NC(=O)c2cccc(NC(=O)c3ccco3)c2)cc1 | – | inactive: -13.7%
CC(C)(C)C1CCC(C(=O)OCC(=O)c2ccc[nH]2)CC1 (configuration not stated) | inconclusive: 23.9 µM [inhibitor, single point] | –
Cc1cc2nc(-c3cccc(NC(=O)c4ccc(Br)o4)c3C)oc2cc1C | active: 4.26 µM | –
Cc1csc2c(N3CCN(C(=S)Nc4ccc(C(F)(F)F)cc4)CC3)ncnc12 | inconclusive: 37.9 µM [inhibitor, partial curve, poor fit] | –
CN(CCOc1ccccc1Cl)Cc1ccccc1 | inconclusive: 26.9 µM [inhibitor, partial curve, poor fit] | –
C#CCN(Cc1ccco1)C(=O)c1cc(COc2ccc(F)cc2Cl)on1 | inconclusive: 19 µM [inhibitor, partial curve] | –
